{"source": "PubChem BioAssay AID1671188", "about": "(National Center for Advancing Translational Sciences (NCATS), 2021)", "note": "The whole screen tested about 100,000 compounds, of which about 250 (0.25%) were called active. The inconclusive results got no clear call from the source; some entries with a clear call stand among them for comparison. Calls come from the whole dose curve; as a rule, active = well fitted inhibition curve with a large enough effect; inconclusive = small, poorly fitted or top-dose-only effect; inactive = flat fitted curve, though single readings scatter. No potency is given beside an inconclusive call; the fits are too rough. Potency is the fitted concentration of half-maximal effect; tags give direction and shape of the fitted curve."}
{"target": "Alanine aminotransferase 2 (Homo sapiens) (UniProt Q8TD30)", "sequence (Q8TD30 whole entry, looked up)": "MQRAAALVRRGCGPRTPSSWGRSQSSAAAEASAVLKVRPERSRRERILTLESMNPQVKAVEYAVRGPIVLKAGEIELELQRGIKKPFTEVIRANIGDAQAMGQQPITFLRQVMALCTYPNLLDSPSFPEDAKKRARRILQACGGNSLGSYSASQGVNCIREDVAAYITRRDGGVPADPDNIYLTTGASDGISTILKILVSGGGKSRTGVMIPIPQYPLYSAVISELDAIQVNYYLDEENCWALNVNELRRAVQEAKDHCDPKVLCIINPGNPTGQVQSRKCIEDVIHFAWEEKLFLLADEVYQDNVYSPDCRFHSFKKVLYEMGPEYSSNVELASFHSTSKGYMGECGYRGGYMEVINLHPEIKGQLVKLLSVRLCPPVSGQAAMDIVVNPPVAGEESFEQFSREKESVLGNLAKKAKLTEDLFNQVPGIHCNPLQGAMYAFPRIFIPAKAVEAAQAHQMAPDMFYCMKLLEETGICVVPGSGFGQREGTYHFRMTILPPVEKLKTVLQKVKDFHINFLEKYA", "assay": "Primary qHTS assay for inhibitors of Glutamate pyruvate transaminase 2 (GPT2); note: nearly all actives have a fitted effect of over 60% in size", "conditions": "Recombinant GPT2, coupled pyruvate oxidase/HRP Amplex Red fluorescence; series mostly up to 57.7 µM", "how_it_was_run": "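Fluorescence of coupled pyruvate oxidase/HRP/Amplex Red system (50uM Amplex, 30 min, dark) reports pyruvate formed by GPT2. Enzyme reaction: 10ng/uL GPT2, 2mM L-alanine, 250uM a-KG, 30 min room temperature, pH 7.5; 50uM AOA control.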"}
{"smiles": "COc1ccc(/C=C/c2ccc3c(c2)C(=O)N2C[C@@H](NC(=O)CC(C)(C)CC(=O)O)C[C@H]2C(=O)N3)cc1", "Potency": "inactive"}
{"smiles": "O=C(c1ccc(OC(F)(F)F)cc1)N1CC2CC(C1)[C@H]1CCCC(=O)N1C2", "note": "(some centres undefined)", "Potency": "inconclusive [inhibitor, single point]"}
{"smiles": "COc1ccc2ccc(OCc3nc(C(=O)N4CCNC(=O)C4C)co3)cc2c1", "note": "(centres undefined)", "Potency": "inconclusive [inhibitor, partial curve, poor fit]"}
{"smiles": "CCN(Cc1cccnc1)C(=O)c1cc(-c2cnn(CC)c2)nc2cc(C)ccc12", "Potency": "inactive"}
{"smiles": "O=C(Cc1cccc(Cl)c1)N1CCCC(c2nn(-c3ccccc3)c(=O)[nH]2)C1", "note": "(centres undefined)", "Potency": "inactive"}
{"smiles": "OC1(CN2CCN(c3cnccn3)CC2)CNCCOC1", "note": "(centres undefined)", "Potency": "inconclusive [inhibitor, single point]"}
{"smiles": "Cn1ncc(N2CCC(C(=O)NCc3ccc(OC(F)(F)F)cc3)C2)cc1=O", "note": "(centres undefined)", "Potency": "inconclusive [inhibitor, single point]"}
{"smiles": "CC(=O)NCC(=O)NCC1CCN(c2cc(-c3ccc(F)cc3)[nH]n2)CC1", "Potency": "inconclusive [inhibitor, single point]"}
{"smiles": "CC(=O)c1cccc(NC(=O)CN2C(=O)NC3(CCCCC3)C2=O)c1", "Potency": "inactive"}
{"smiles": "COc1cc(OC)cc(C(=O)N[C@@H]2CN(S(C)(=O)=O)C[C@H]2CN(C)C)c1", "Potency": "inconclusive [inhibitor, partial curve, poor fit]"}
{"smiles": "O=C1NCCCN1C1CCN(Cc2cccnc2)CC1", "Potency": "inconclusive [inhibitor, full curve, poor fit]"}
{"smiles": "CCCc1noc(-c2cccn3c(CNC(=O)CCc4ccccc4)nnc23)n1", "Potency": "inconclusive [inhibitor, single point]"}
{"smiles": "O=C(Nc1ccc(Cl)cc1)N1CCCN(c2nc3ncccc3o2)CC1", "Potency": "inconclusive [inhibitor, single point]"}
{"smiles": "COc1ccccc1OCCC1CCN(C(=O)NCC(C)C)C1", "note": "(centres undefined)", "Potency": "inactive"}
{"smiles": "CCCCOc1ccc(C(=O)N2CCC[C@H]2c2nc(-c3ccc(F)cc3)no2)cc1", "Potency": "inconclusive [inhibitor, single point]"}
{"smiles": "COCCNc1ncc(-c2cccc(OC)c2)c2c1OCC2", "Potency": "inconclusive [inhibitor, single point]"}
{"smiles": "CN1CCc2nc(N3CCN(CC4CCCCC4)CC3)sc2C1", "Potency": "inactive"}
{"smiles": "COc1ccc(C(=O)Nc2ccc(-c3noc([C@@H]4CCCN4Cc4ccc(F)c(F)c4)n3)cn2)cc1", "Potency": "inactive"}
{"smiles": "CCn1c2c(c(=O)n1-c1ccccc1)CCN(Cc1ncccn1)C2", "Potency": "inconclusive [inhibitor, full curve]"}
{"smiles": "CC(C)CN1CCNC(=O)C1CC(=O)NC(C)(C)Cc1ccc(F)cc1", "note": "(centres undefined)", "Potency": "inconclusive [inhibitor, single point]"}
{"smiles": "COc1ccc(CN2CCC3(CNc4ccccc4[S+](=O)([O-])N3)C2)cc1", "note": "(centres undefined)", "Potency": "inconclusive [inhibitor, single point]"}
{"smiles": "CNC(=O)N1CCC(OC2CCN(Cc3ccccc3)CC2)CC1", "Potency": "inactive"}
{"smiles": "CN(CC1Cc2ccccc2CN1C)C(=O)c1cnc2nc[nH]n2c1=O", "note": "(centres undefined)", "Potency": "inconclusive [inhibitor, single point]"}
{"smiles": "O=C(NCc1ccccn1)c1cn2cc(-c3ccccc3)sc2n1", "Potency": "inactive"}
{"smiles": "O=C(N1CCC(N[S+](=O)([O-])Cc2ccccc2F)CC1)N1CC2CC(C1)[C@H]1CCCC(=O)N1C2", "note": "(some centres undefined)", "Potency": "inactive"}
{"smiles": "COCCNC(=O)C[C@@H]1C[C@@H](C(C)C)[C@H](CNC(=O)C2CC2)C=C1C", "Potency": "inactive"}
{"smiles": "O=C(Nc1ccccc1F)N1CC2CCC(C1)N2Cc1cccs1", "Potency": "inconclusive [inhibitor, single point]"}
{"smiles": "Cc1ccc(-c2cc(N3CCCN(C(=O)c4cccc(N(C)C)c4)CC3)n[nH]2)cc1C", "Potency": "inconclusive [inhibitor, partial curve]"}
{"smiles": "CCN1C(=O)C2CC3(CCN(C(=O)c4ccc(OC)nc4)CC3)CN2C1=O", "note": "(centres undefined)", "Potency": "inconclusive [inhibitor, single point]"}
{"smiles": "O=C1CC2CCCC(C1)N2[S+](=O)([O-])c1cc(C(F)(F)F)cc(C(F)(F)F)c1", "Potency": "inconclusive [inhibitor, single point]"}
{"smiles": "O=C(C1CCCN1C(=O)NC1CCCC1)N1CCC(c2ccccc2)CC1", "note": "(centres undefined)", "Potency": "inactive"}
{"smiles": "CC(C)NC(=O)CN1C(=O)NC2(CCC(C(C)(C)C)CC2)C1=O", "note": "(centres undefined)", "Potency": "inactive"}
{"smiles": "COc1cccc(CNC(=O)c2nnn3cc(C)[nH]c(=O)c23)c1", "Potency": "inactive"}
{"smiles": "COCC(=O)N[C@H]1C[C@@H](Cc2cc(CN(C)Cc3ccccc3)on2)C1(C)C", "Potency": "inconclusive [inhibitor, full curve, poor fit]"}
{"smiles": "Cc1ccc(CN2C(=O)[C@@H]3C[C@@H](O)CN3C3(CN(C4CCC4)C3)C2=O)o1", "Potency": "inactive"}
{"smiles": "OCC(CO)(CO)NCC(O)Cn1c2ccc(Cl)cc2c2cc(Cl)ccc21", "note": "(centres undefined)", "Potency": "inactive"}
{"smiles": "CNC(=O)[C@@H]1C[C@H](Oc2ccccc2)CN1C(=O)Cn1nc(C)cc1C", "Potency": "inconclusive [inhibitor, single point]"}
{"smiles": "COC(=O)[C@@H]1Cc2c([nH]c3ccccc23)[C@H]2C[C@H](NCCCn3ccnc3)C[C@@H](c3ccccc3F)N21", "Potency": "inactive"}
{"smiles": "O=C(c1ccc2[nH]ccc2c1)N1CCCN(c2cc(-c3ccc(F)cc3)[nH]n2)CC1", "Potency": "inconclusive [inhibitor, single point]"}
{"smiles": "CCc1nnc(NC(=O)Cn2nc3c(cc2=O)CCCCC3)s1", "Potency": "inactive"}
{"smiles": "COc1cccc(CC(=O)N2CCCn3nc(C)c(-c4ccccc4Oc4ccccc4)c32)c1", "Potency": "inconclusive [inhibitor, full curve, poor fit]"}
{"smiles": "COc1cccc(CN2CCC3(CC2)COc2ccccc2NC3=O)c1", "Potency": "inactive"}
{"smiles": "O=C(C1CC1)N1CC2(CCCN2C2COC2)Cc2ccccc21", "note": "(centres undefined)", "Potency": "inactive"}
{"smiles": "O=C(NC1CCN(c2cc(-c3cccs3)[nH]n2)C1)c1cc(F)ccc1Cl", "note": "(centres undefined)", "Potency": "inconclusive [inhibitor, partial curve, poor fit]"}
{"smiles": "O=C(O)Cn1ccc2cc(OCC3CCN(C(=O)CCC(F)(F)F)CC3)cnc21", "Potency": "inconclusive [inhibitor, single point]"}
{"smiles": "O=c1c2nc(-c3ccc(O)c(F)c3)ccc2ncn1-c1ccccc1", "Potency": "inactive"}
{"smiles": "Cc1[nH]ncc1CNC(=O)C1CCCCC(=O)N1Cc1ccccc1", "note": "(centres undefined)", "Potency": "inconclusive [inhibitor, single point]"}
{"smiles": "O=C1C[C@@H]2CCN(C(=O)c3ccccc3)C[C@@H]2CCN1Cc1cccnc1", "Potency": "inconclusive [inhibitor, single point]"}
{"smiles": "COc1ccc(C(=O)NC2CCN(C(=O)N3CC4CC(C3)[C@H]3CCCC(=O)N3C4)CC2)cc1F", "note": "(some centres undefined)", "Potency": "inconclusive [inhibitor, full curve, poor fit]"}
{"smiles": "CC(C)CCN1CCC2(CC1)CNc1ccccc1[S+](=O)([O-])N2", "Potency": "inconclusive [inhibitor, partial curve, poor fit]"}
{"smiles": "NCC(O)c1ccc(O)c(O)c1", "note": "(centres undefined)", "Potency": "inconclusive [inhibitor, single point]"}
{"smiles": "C=CC(=O)Nc1cccc(Nc2nc(Nc3ccc(NC4CN(CCF)C4)cc3OC)ncc2C(F)(F)F)c1", "Potency": "active: 8.91 µM"}
{"smiles": "O=C(NCCN1CCCCCC1)C1(CCO)CC12CCOCC2", "note": "(centres undefined)", "Potency": "inconclusive [inhibitor, single point]"}
{"smiles": "COC(=O)Nc1cc(C2CC2)nn1-c1ccccc1", "Potency": "inactive"}
{"smiles": "COc1nc2nc(CC3CC3)n(C)c2cc1-c1ccc(N2CCOCC2)cc1", "Potency": "inactive"}
{"smiles": "NC(=O)c1cccc(CN2CCCC23Cc2ccccc2N(C(=O)c2ccc(Cl)cc2)C3)c1", "note": "(centres undefined)", "Potency": "inconclusive [inhibitor, full curve, poor fit]"}
{"smiles": "COc1ccc(C(=O)N2CCC3(CC2)C(=NC2CCCCC2)NC(=O)N3c2cccc(OC)c2)cc1", "Potency": "inconclusive [inhibitor, single point]"}
{"smiles": "CCn1cc(C(=O)O)c(=O)c2cc(F)c(N3CCNC(C)C3)c(F)c21", "note": "(centres undefined)", "Potency": "inconclusive [inhibitor, partial curve]"}
{"smiles": "O=C(NCc1ccc2c(c1)OCO2)C1CCN(c2cc(C(F)(F)F)ncn2)CC1", "Potency": "inactive"}
{"smiles": "O=C(Cc1ccccn1)NC1CCN(Cc2cccc(-c3cccs3)c2)CC1", "Potency": "inconclusive [inhibitor, partial curve, poor fit]"}
{"smiles": "Cc1noc(C)c1S(=O)(=O)N1CCc2nn(Cc3ccccc3)c(=O)n2CC1", "Potency": "inactive"}
{"smiles": "COc1ccc(OCc2nc(C3CN(C(=O)C4(c5ccc(OC)cc5)CC4)C3)no2)cc1", "Potency": "inactive"}
{"smiles": "COCc1ccc2c(c1)c(OC(C)(C)C(=O)Nc1cccnc1)nn2Cc1cccnc1", "Potency": "inconclusive [inhibitor, single point]"}
{"smiles": "O=C(c1ccncc1)N1CCC(n2cc(-c3nc(-c4ccccc4)no3)nn2)CC1", "Potency": "inactive"}
{"smiles": "CCC1=C(C(=O)OC)C(c2ccc(Cl)cc2)N2C(CC(=O)N3CCOCC3)=CSC2=N1", "note": "(centres undefined)", "Potency": "inactive"}
{"smiles": "O=C(Cc1ccc(F)cc1)N1CCC(C(=O)N2CCCC2c2nc3ccncc3[nH]2)CC1", "note": "(centres undefined)", "Potency": "inactive"}
{"smiles": "Cc1ccc(C(=O)N2CCC3(CC2)NC(=O)N(c2ccccc2)N3)s1", "Potency": "inconclusive [inhibitor, single point]"}
{"smiles": "CC1(C(=O)N2CCCC2)CCCc2cnc(Nc3cccnc3)nc21", "note": "(centres undefined)", "Potency": "inconclusive [inhibitor, full curve, poor fit]"}
{"smiles": "CC(C)NC(=O)C1CCCN(c2nccc(Nc3ccccc3F)n2)C1", "note": "(centres undefined)", "Potency": "inconclusive [inhibitor, single point]"}
